# Test results as given in the supplement of paper PMC8728848.
# The other results are listed elsewhere or left out.
# How the values were obtained:
# Test in all cases: glycan array binding signal (z-score within array); higher = stronger binding
# Settings in all cases: glycan notation: IUPAC condensed, linker removed
# [1] = target: Gal(a1-3)Gal(b1-4)GlcNAc
# Outline: (§1)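 Columns mapping to the same glycan were averaged after glycan names were converted to IUPAC-condensed notation. The data come from 3228 arrays in the Consortium for Functional Glycomics database, limited to those with an available protein sequence. Binding is reported as a within-array Z-score averaged across arrays of one protein sequence and across linkers.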
# [2] = target: Gal(a1-3)Gal(b1-4)GlcNAc(b1-2)Man
# Outline: as §1
# [3] = target: Gal(a1-3)Gal(b1-4)GlcNAc(b1-2)Man(a1-3)[Gal(a1-3)Gal(b1-4)GlcNAc(b1-2)Man(a1-6)]Man(b1-4)GlcNAc(b1-4)GlcNAc
# Outline: as §1
# [4] = target: Gal(a1-3)Gal(b1-4)GlcNAc(b1-3)GalNAc
# Outline: as §1
# [5] = target: Gal(a1-3)Gal(b1-4)GlcNAc(b1-6)GalNAc
# Outline: as §1
# [6] = target: Gal(a1-3)Gal(b1-4)[Fuc(a1-3)]GlcNAc
# Outline: as §1
# [7] = target: Gal(a1-3)Gal(b1-4)[Fuc(a1-3)]GlcNAc(b1-2)Man(a1-3)[Gal(a1-3)Gal(b1-4)[Fuc(a1-3)]GlcNAc(b1-2)Man(a1-6)]Man(b1-4)GlcNAc(b1-4)GlcNAc
# Outline: as §1
# [8] = target: Gal(a1-3)GalNAc
# Outline: as §1
# [9] = target: Gal(a1-3)[Gal(a1-4)]Gal(b1-4)GlcNAc
# Outline: as §1
# [10] = target: Gal(a1-4)Gal(b1-3)GlcNAc(b1-2)Man(a1-3)[Gal(a1-4)Gal(b1-3)GlcNAc(b1-2)Man(a1-6)]Man(b1-4)GlcNAc(b1-4)GlcNAc
# Outline: as §1
# [11] = target: Gal(a1-4)Gal(b1-4)Glc
# Outline: as §1
# [12] = target: Gal(a1-4)Gal(b1-4)GlcNAc
# Outline: as §1
# [13] = target: Gal(a1-4)Gal(b1-4)GlcNAc(b1-2)Man(a1-3)[Gal(a1-4)Gal(b1-4)GlcNAc(b1-2)Man(a1-6)]Man(b1-4)GlcNAc(b1-4)GlcNAc
# Outline: as §1
# [14] = target: Gal(a1-4)Gal(b1-4)GlcNAc(b1-3)Gal(b1-4)Glc
# Outline: as §1
# [15] = target: Gal(a1-4)GlcNAc
# Outline: as §1
# [16] = target: Gal(a1-6)Glc
# Outline: as §1
# [17] = target: Gal(b1-2)Gal
# Outline: as §1
# [18] = target: Gal(b1-3)Gal
# Outline: as §1
# [19] = target: Gal(b1-3)Gal(b1-4)GlcNAc
# Outline: as §1
# [20] = target: Gal(b1-3)GalNAc
# Outline: as §1
# [21] = target: Gal(b1-3)GalNAc(a1-3)[Fuc(a1-2)]Gal(b1-4)Glc
# Outline: as §1
# [22] = target: Gal(b1-3)GalNAc(a1-3)[Fuc(a1-2)]Gal(b1-4)GlcNAc
# Outline: as §1
# [23] = target: Gal(b1-3)GalNAc(b1-3)Gal
# Outline: as §1
# [24] = target: Gal(b1-3)GalNAc(b1-3)Gal(a1-4)Gal(b1-4)Glc
# Outline: as §1
# [25] = target: Gal(b1-3)GalNAc(b1-4)Gal(b1-4)Glc
# Outline: as §1
# [26] = target: Gal(b1-3)GalNAc(b1-4)[Neu5Ac(a2-3)]Gal(b1-4)Glc
# Outline: as §1
# [27] = target: Gal(b1-3)GlcNAc
# Outline: as §1
# [28] = target: Gal(b1-3)GlcNAc(a1-3)Gal(b1-4)GlcNAc
# Outline: as §1
# [29] = target: Gal(b1-3)GlcNAc(a1-6)Gal(b1-4)GlcNAc
# Outline: as §1
# [30] = target: Gal(b1-3)GlcNAc(b1-2)Man
# Outline: as §1
binder,measurement,setting,value
"CC1G-10077 (Coprinopsis cinerea), A8NDT7 (protein) MALNEGVYWIRNSRFTNKVLDLDAANVAKGTSILDFNEHGTFNENHNQLWIVERFQSRDTYLIRSVHSNLVLDLSQGLSANGTPILCWTQHGGTNQQWRIEWVKDDNKTPLYRIVSVATGTAISHNEDDSSAYTVAWSVDDGPKQLWSFDPFVTPLLYRLRVKSTSRVLDLAAASADNGTLALAWEQHTAITKRNQLWWLPYRSGAEEYTIQCLETSTVADLSGGNSGNGTPIYGWQSHGGRNQQWKFEPTSDSGDYYHIKNVEGGSVMDAYMNDSQKRVGGWSNNGGDNQKWLLDPLPSPGPGWVLIQNGGTGKFLCSTPSGDIGTADGPETVYDYSVQWRFIQREYTGVYHVVNRATGAYLRQIGTSMPSIGLAEENDDELKDWWMLETYDNSEIGLASIISRWTGNVLDHYGGVSVQALDNNTENSYRSWAIIPARDWLTSFSLVNGQGGLCLAAQYAREETRLSTTANVNDFHAQWVFRKPSGSSGYTIQNKYNNHYVGGTSARWELVVCCNKYFGIRNTSTQKYLAIEDGQVTFQDQDMTDRKQCWELCSGRATDTSGNDYDLIYMDDDLLEVMIPWVGDKQGDLKHYIEKRATKKPPKDKGGWQLPAAGLIKKPKFNDIRQLLQELIEQWEWDVVNEEREQIQTLVSIDEAEARRLLGRRPHPDIVAAYQRSRSSTLFRIDRQGYFNIAGDRYVNIQGQYGDDSYFHIALPVGVRFGREQIRRFLRDSLDRSTSVTITPTTCKPPSGGPDYNRDPDSDGDNSWIKWTIAVVGTSAIKHSEL",glycan array binding signal (z-score),[1],0.177
same,glycan array binding signal (z-score),[2],-0.237
same,glycan array binding signal (z-score),[3],1.36
same,glycan array binding signal (z-score),[4],-0.3
same,glycan array binding signal (z-score),[5],1.93
same,glycan array binding signal (z-score),[6],0.744
same,glycan array binding signal (z-score),[7],0.626
same,glycan array binding signal (z-score),[8],-0.374
same,glycan array binding signal (z-score),[9],1.58
same,glycan array binding signal (z-score),[10],1.57
same,glycan array binding signal (z-score),[11],1.04
same,glycan array binding signal (z-score),[12],-0.007
same,glycan array binding signal (z-score),[13],0.828
same,glycan array binding signal (z-score),[14],-0.131
same,glycan array binding signal (z-score),[15],-0.197
same,glycan array binding signal (z-score),[16],-0.49
same,glycan array binding signal (z-score),[17],-0.363
same,glycan array binding signal (z-score),[18],-0.345
same,glycan array binding signal (z-score),[19],0.019
same,glycan array binding signal (z-score),[20],-0.406
same,glycan array binding signal (z-score),[21],-0.294
same,glycan array binding signal (z-score),[22],-0.27
same,glycan array binding signal (z-score),[23],-0.311
same,glycan array binding signal (z-score),[24],0.146
same,glycan array binding signal (z-score),[25],-0.148
same,glycan array binding signal (z-score),[26],-0.33
same,glycan array binding signal (z-score),[27],-0.1
same,glycan array binding signal (z-score),[28],0.204
same,glycan array binding signal (z-score),[29],2.24
same,glycan array binding signal (z-score),[30],-0.106
